PubChem BioAssay AID624296 (National Center for Advancing Translational Sciences (NCATS), 2012)
“And” between values parts separate entries of the source, which are not always exact repeats. Equal entries are not always repeated. Screen size: about 350,000 compounds; about 9,900 (2.8%) were called active. Inconclusive results, whose numbers are uncertain, are shown with a selection of clear calls. Calls follow the shape of the dose curve; as a rule, active = well fitted activation curve with a large enough effect; inconclusive = small, poorly fitted or top-dose-only effect; inactive = no such curve, though single readings can be large or run the other way. Where the call is inconclusive, the potency comes from a doubtful curve fit.

Test: A quantitative high throughput screen for small molecules that induce DNA re-replication in MCF 10a normal breast cells. Also: nearly all actives have a fitted effect of over 50% in size.
Conditions: MCF 10A DNA re-replication, Hoechst nuclear intensity, 48 h; series mostly up to 46.1 µM
Potency is read from the fitted curve at half-maximal effect; tags tell the direction and shape of the fitted curve.

| SMILES | Potency |
| --- | --- |
| Oc1c(Cl)cc(Cl)cc1CNc1ccc(Br)cn1 | active: 11.2 µM |
| O=C(O)C1=CC[C@@H](c2ccc(Cl)cc2)N(S(=O)(=O)c2ccc(Cl)cc2)[C@H]1c1ccc(Br)cc1 | inconclusive: 9.2 µM [activator, single point] |
| CC(C)c1nc2ccccc2c2nnc(SCC(=O)NCc3ccco3)n12 | inconclusive: 5.8 µM [activator, single point] |
| O=C(Nc1ccccc1C(=O)O)c1ccc(NC(=O)C2CC2)cc1 | inactive |
| Cc1ccc(N=c2c([N+](=O)[O-])nn(-c3ccc(Cl)cc3)n2O)cc1C | inactive |
| COc1ccc(CN2CCN(Cc3nc4ccccc4s3)CC2CCO)c(C)c1C (centres undefined) | inconclusive: 25.9 µM [activator, single point] |
| Cc1nccn1CCc1n[nH]c(=S)n1Cc1ccccc1 | inactive |
| Cc1c(Cl)cccc1NC(CC(=O)c1ccccc1)C(=O)O (centres undefined) | inconclusive: 29.1 µM [activator, single point] |
| CCOC(=O)C1CCCN(c2nc3ccccc3nc2C(C#N)C(=O)OCC)C1 (centres undefined) | inconclusive: 14.6 µM [activator, partial curve] |
| COc1ccc(C2CC(=O)C=C(NCc3ccccc3)C2)cc1 (centres undefined) | inconclusive: 29.1 µM [activator, single point] |
| COc1ccc(C2=NS(=O)(=O)N(C)C(C(=O)Nc3cc(OC)c(OC)c(OC)c3)=C2)cc1 | inactive |
| COc1ccc(CNC(=O)C(C#N)c2nc3ccccc3nc2N2CCCC2)cc1 (centres undefined) | active: 11.6 µM |
| O=C(NCCc1c[nH]c2ccccc12)C(=O)NCC(c1ccco1)N1CCN(c2ccc(F)cc2)CC1 (centres undefined) | inconclusive: 18.4 µM [activator, partial curve, poor fit] |
| O=C(N/N=C/c1ccccn1)c1cccc(NC(=O)c2ccccc2Cl)c1 | inactive |
| Cc1oc(-c2ccccc2F)nc1CS(=O)(=O)CC(=O)N1CCCCCC1 | inactive |
| CCCNC(=O)c1onc(CSc2ccc(F)cc2)c1C(=O)NCCC | inconclusive: 23.1 µM [activator, single point] |
| COc1cccc2c1C(=O)c1c(O)c3c(c(O)c1C2=O)C[C@@](O)(C(=O)CO)C[C@@H]3OC1CC(N)C(O)C(C)O1 (some centres undefined) | inactive and inconclusive: 33.5 µM [activator, single point] |
| CCCCN(C)C(=O)C(Cc1ccccc1)NS(=O)(=O)c1ccc2c(c1)c(=O)n(C)c(=O)n2C (centres undefined) | inactive |
| Cc1[nH]c2ccccc2c1SCC(=O)Nc1nccs1 | active: 0.651 µM |
| O=C(NCCCCc1ccccc1)c1cccc(NC(=O)C2CCCCC2)c1 | inconclusive: 29.1 µM [activator, single point] |
| CC(C)(O)[C@@H]1[C@@H]2C[C@@]3(CC[C@]4(C)C(CCC5[C@@]6(C)CC[C@H](O)C(C)(C)C6CC[C@]54C)[C@@H]13)C(=O)O2 (some centres undefined) | inconclusive: 0.0046 µM [activator, full curve, poor fit] |
| Cc1ccc(-n2cc(CNC(C)c3cnn(C)c3C)c(-c3ccc(F)cc3)n2)cc1 (centres undefined) | inconclusive: 29.1 µM [activator, partial curve, poor fit] |

| SMILES | Potency |
| --- | --- |
| O=C(Cn1c(Cc2ccccc2)nc2ccccc21)NCc1ccc2c(c1)OCO2 | inconclusive: 18.4 µM [activator, partial curve, poor fit] |
| O=C(COC(=O)c1cc2ccccc2o1)NCc1ccco1 | inactive |
| Cc1ccc(-c2nnn(CC(=O)N(Cc3ccccc3F)C(C(=O)NC3CCCC3)c3ccncc3)n2)o1 (centres undefined) | inconclusive: 29.1 µM [activator, partial curve, poor fit] |
| COC(=O)/C(C#N)=C/c1ccc(N2CCOCC2)c([N+](=O)[O-])c1 | inactive |
| COc1ccccc1NC(=O)Cn1c(C)nc2c(sc(=S)n2Cc2ccco2)c1=O | inconclusive: 14.6 µM [activator, partial curve, poor fit] |
| CCOc1ccc(-c2nc3c(s2)CCc2onc(-c4ccc(OC)cc4)c2-3)cc1 | inactive |
| CCOC(=O)/C(C#N)=C/C=C1/C=CC=CN1C | inactive |
| Cc1ccc(CCNC(=O)C2CCCN(C(=O)c3cc4sccc4n3C)C2)cc1 (centres undefined) | inconclusive: 25.9 µM [activator, single point] |
| N#Cc1ccc(CN2CCN(C(=O)c3cn(Cc4ccccc4)nc3-c3cccnc3)CC2)cc1 | inconclusive: 18.4 µM [activator, partial curve, poor fit] |
| COc1ccc(N2CCN(C(=O)C(Cc3ccccc3)n3cccc3)CC2)cc1 (centres undefined) | inactive |
| CCCCn1c(N)c(N(C(=O)CSc2nnnn2-c2ccccc2C)C2CCCC2)c(=O)[nH]c1=O | inactive |
| COc1cc(NC(=O)c2ccc(OCc3c(C)noc3C)c(OC)c2)cc(OC)c1 | inactive |
| Cc1n[nH]c(=O)c2c(NC(=O)COC(=O)c3cc(F)cc(F)c3)oc(C)c12 | inactive |
| CCOC(=O)[C@@H]1[C@H]2COc3ccc(Br)cc3[C@H]2N2C(=O)N(c3ccc(Br)cc3)C(=O)[C@]12C | inconclusive: 29.1 µM [activator, single point] |
| O=C(O)c1ccccc1C(=O)NC1Cc2ccccc2C1 | inactive |
| CN(NC(=S)Nc1ccc(OC(F)F)cc1)C(=S)Nc1ccc(OC(F)F)cc1 | inactive |
| COc1ccc(Nc2ncc(C(=O)N3CCN(Cc4ccccc4)CC3)c3ccccc23)cc1 | inconclusive: 20.6 µM [activator, single point] |
| CCCCn1cc(C(=O)c2cc(Br)ccc2O)cc(C#N)c1=O | inconclusive: 18.4 µM [activator, partial curve, poor fit] |
| CC(=O)Nc1ccc(C(=O)N/N=C/c2ccccc2OCc2ccccc2)cc1 | inconclusive: 20.6 µM [activator, single point] |
| O=C(C1CCCN(Cc2nc(-c3ccc(Cl)cc3)no2)C1)N1CCOCC1 (centres undefined) | inactive |
| Cc1cc(C(=O)Nc2ccc(Cl)cc2)c(C)n1Cc1cccs1 | inconclusive: 14.6 µM [activator, partial curve, poor fit] |
| CC(C)(C)C(=O)CSc1nc2c(c(-c3cccs3)c1C#N)CCC2 | active: 4.11 µM |
